# The other results are listed elsewhere or left out.
# T1: UNK ZnF1-3 (human, UniProt Q9C0B0 31-174)
# T1 sequence: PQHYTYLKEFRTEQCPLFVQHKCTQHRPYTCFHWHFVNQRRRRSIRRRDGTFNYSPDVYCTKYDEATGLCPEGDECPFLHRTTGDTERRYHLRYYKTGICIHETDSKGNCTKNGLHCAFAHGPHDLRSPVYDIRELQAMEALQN
# B1: chr7:135612270:135612271:-_ENSG00000105887_ENST00000393085|hu_mus|hu_hu_hu_mus_False|78_88 (ssRNA)
# RNA: GGGAGUUCUACAGUCCGACGAUCGUUUUUUUCUGAGAUGUUAAAUAUUCAGUGGAGAACAAAACUUACUUAACCUUUUAUUAAUGCGUGUUGUACCAAAAGCAGACAUUUUAGCUUCAUUUAUUCAAAAAUAUUAACAUUAAGCAACAGAGGAUUGAGCAUCA
# B2: chr11:68312385:68312386:+_ENSG00000110075_ENST00000393800|hu_mus|motif|central (ssRNA)
# RNA: GGGAGUUCUACAGUCCGACGAUCCUUGCUGAAGAAACUGGCGAGUAGUGGGUUCAAGGGGGACUCAUUUAGGAGGAAGCGGUACAAUUUCAUUAGCAAGGACUCAUCUUCCCCCAGUCUAUCAUUCAUCUGGGAGACAUCAGACAACAGAGGAUUGAGCAUCA
# B3: chr11:77336104:77336105:-_ENSG00000074201_ENST00000525064|hu_mus|hu_hu_hu_mus_False|1_48 (ssRNA)
# RNA: GGGAGUUCUACAGUCCGACGAUCCUCACACAUUGCUGUGAACAUCGCCUCCAAUGCUGACUUAUCACUGGGCACAAAUCGAAAUUCAGUAAUAGGUUCAACAUCAUCAUUGUCUUCCUCAUCUUCAUCAGAGAGAGCAGGUUCCAACAGAGGAUUGAGCAUCA
# B4: chr12:25358290:25358291:-_ENSG00000133703_ENST00000311936|hu_hu|motif|central (ssRNA)
# RNA: GGGAGUUCUACAGUCCGACGAUCGUACAGUUCAUGACAAAAAUAUUACAAAUUUUAGAUCACUUCACAGCACAUACUCCGGUAAACAUUUAAAAGUUAAUUUCAAUUAAAAGAGUGGUCAUUUUUAAUGUUUGAUAUGACCAACAACAGAGGAUUGAGCAUCA
# B5: chr1:167535829:167535830:-_ENSMUSG00000026566_ENSMUST00000068705|mus_hu|FALSE|FALSE (ssRNA)
# RNA: GGGAGUUCUACAGUCCGACGAUCAGGAGGGUUUUUGACAUCACAGAUAUAGGUGCCAUUGUGUAUAAACUGCAUAUUUUCUAUGUUGAUUGAUGCAUCUUUCUUGUCAAGGUCUCCAGCCCAGCUGAUUCUGUCUUUAAAUGGCAACAGAGGAUUGAGCAUCA
# B6: chr16:94651144:94651145:+_ENSMUSG00000040785_ENSMUST00000117648|mus_hu|mus_mus_mus_hu_True|28_68 (ssRNA)
# RNA: GGGAGUUCUACAGUCCGACGAUCAUUUUCUUGAAUCAAGUGGCGAAUAACAUAGUCCACUGCUUCAUGGACAAAAUUUCUGCUAGAAAAACAGGUUGUAUAGUCUUCCGUGCUCAGAACUUUCCAAGAAAGCAAUUCUUUGAGCAACAGAGGAUUGAGCAUCA
# B7: chr9:66219764:66219765:+_ENSMUSG00000038664_ENSMUST00000042824|mus_mus|FALSE|FALSE (ssRNA)
# RNA: GGGAGUUCUACAGUCCGACGAUCUUCAAAAUCAGGCAACUGUGGUCCUUUGAGGCAUAAAACCUGUUGAGGCAAAGGUACUACUUCCUUAUUGCUGAUCAGUUUAGAAUACAAAACGGUAACUCCCUCUCUUGUAGCAAUAGACAACAGAGGAUUGAGCAUCA
# B8: chr11:121174221:121174222:+_ENSG00000109929_ENST00000392789|hu_mus|motif|central (ssRNA)
# RNA: GGGAGUUCUACAGUCCGACGAUCGGUUGCACAGAAGAAGUAGAGAAUGUAAGCACCCAGGUUUGUGACAAUCAGGAGGCGGAUAGUUUGUCGGAUGAUGUUGUCCUCGGGCCACGUGGCUGGAUAUACAUACGGAGUGAAGAACAACAGAGGAUUGAGCAUCA
# B9: chr12:3264740:3264741:-_ENSMUSG00000020671_ENSMUST00000021001|mus_hu|FALSE|FALSE (ssRNA)
# RNA: GGGAGUUCUACAGUCCGACGAUCCCAUAUCUGUAGCUUGAUCUUCUUUCCUUGUAAUUCAACUGUUUUGAUCUUGAAGUCUAUUCCUAUGGUGGAAAUAAAGGUAGUAUUGAAGGCAUCAUCCGAAAAACGAAAAAGGACGCACAACAGAGGAUUGAGCAUCA
# B10: chr2:37458628:37458629:-_ENSMUSG00000026915_ENSMUST00000072186|mus_mus|FALSE|FALSE (ssRNA)
# RNA: GGGAGUUCUACAGUCCGACGAUCCUUAUACUGAAGCCCGGGCCUGAUCUGAUUUAAUCUCAUUAGUGCAUUCAUAAGGUCUAUUGCUUUACUAUCUAGAAUUUUCCUUAAGUUUCGUUUCAUCUUCUUGUUGGGAUCUUUAUCCAACAGAGGAUUGAGCAUCA
# B11: 29977199_29977319_67_3pUTR_ENSG00000184117_ENST00000216121|human|control|control (ssRNA)
# RNA: GGGAGUUCUACAGUCCGACGAUCGGGCGUCUCCAACUCCGCAGGUGCUGGACGGAAGUCAGGGUUCUAAUCCUCUGCGCGCUCUGCGACCUUGGCAAGCCCUUUGCCCACUCUGGGCCUCAGGAUCCACCUCGGUAAAAUGGGCAACAGAGGAUUGAGCAUCA
# B12: 118366522_118367487_508_CDS_ENSMUSG00000030138_ENSMUST00000032237|mouse|control|control (ssRNA)
# RNA: GGGAGUUCUACAGUCCGACGAUCACACCCACACUCAAUAAUUGUAAGUCUGCGCUUUUUACCUGACACAAUUGUCACAGGGCCUCUGAUCUCACUCAAUUUCUGUCUGGUAAAAUUCCGAAUCAGGCAUCGUAUCAAAGUGCUCAACAGAGGAUUGAGCAUCA
# B13: chr8:35894304:35894305:-_ENSMUSG00000031529_ENSMUST00000033929|mus_mus|FALSE|FALSE (ssRNA)
# RNA: GGGAGUUCUACAGUCCGACGAUCUUUUCAAAGUAACAACGACAACAAGAAGCAUCAACAAAUAUGCUUGGCAAAAUUAAAAAAUGAGCACACCACAUGUGUCUGUUAUUCAUGUGCCAAACAUAACCAAGAAAAUGUAGUGUACAACAGAGGAUUGAGCAUCA
# B14: chr7:56126124:56126125:+_ENSG00000146731_ENST00000540286|hu_hu|motif|central (ssRNA)
# RNA: GGGAGUUCUACAGUCCGACGAUCUUGAUUAAUAACAACAAAUCCUUUAUCUGAAUCGCCACAGACUUUCCUUUUCAGUUCGGUUAUUUUUUUAACCCUAUCUUCAAUGAAUUUUCUUUCAGCUUUCACGAGUUUUUCUCUCUCCAACAGAGGAUUGAGCAUCA
# B15: chr4:107938938:107938939:-_ENSMUSG00000034636_ENSMUST00000043616|mus_mus|FALSE|FALSE (ssRNA)
# RNA: GGGAGUUCUACAGUCCGACGAUCCCGGCUGAAGCACCGCUCAUAUGGAUCCUCGAGGGACAGAGUUAAUGAGUUUAGUACUAAGCACUGAAGAUUUUGCUGGAUCCACUUGUUACUGCCAAGGCCACUUAUGAUGUCUGUGAUCAACAGAGGAUUGAGCAUCA
# B16: 91606604_91606724_216_5pUTR_ENSMUSG00000040506_ENSMUST00000045705|mouse|control|control (ssRNA)
# RNA: GGGAGUUCUACAGUCCGACGAUCAUGGUGCUCAGGAGCCACUGUCGCACCAGGGAUCAGAACUGAAGGAGCAAGCAAUAGCUCCACACACAGAAAUAGCUAAAAUGAGGCCAUUCAGGUCCUUGUCAGCUGUCCUCAUGGAAACAACAGAGGAUUGAGCAUCA
# B17: chr9:71842732:71842733:+_ENSG00000119139_ENST00000377245|hu_hu|FALSE|FALSE (ssRNA)
# RNA: GGGAGUUCUACAGUCCGACGAUCAUCAUAAUCAGAAUACUGAUGACGUCUCUCCUCUGGAGAAAAUGAUCGGUUUGACUCUAUUUCUGAAAUAUCUUCUAUUUCUGAGUCACUGUCAUUUAAUGACGGGAUGUUGAUGAGGGUCAACAGAGGAUUGAGCAUCA
# B18: 106622725_106625096_637_CDS_ENSMUSG00000040661_ENSMUST00000046502|mouse|control|control (ssRNA)
# RNA: GGGAGUUCUACAGUCCGACGAUCUCUUCUUUCCAAUUCUUCCUGCUGUGCUGCUUUGGUUACGGGCUCCAACUGAUCCUCCCGGAGUAGCUUUCGUAUGUUUCUUCUCAUGUGAGAGGGCUUCUGAGCUCGCUUCUUUUUGGGCAACAGAGGAUUGAGCAUCA
# B19: chr19:16212804:16212805:+_ENSG00000167460_ENST00000300933|hu_mus|hu_hu_hu_mus_False|48_88 (ssRNA)
# RNA: GGGAGUUCUACAGUCCGACGAUCAACAAUUCUGGAGUGAAGGAAAGCAUCAAGGAUGAACAGCAUUAAAGCUCAGUCAGAAGGCACGUGGGUAAUUAUGAUCACCCCAGCAUUCUCGCUUGGAAUGCUUAAAGACAAUCUGUUCAACAGAGGAUUGAGCAUCA
# B20: chr19:29884105:29884106:-_ENSMUSG00000074909_ENSMUST00000099525|mus_mus|FALSE|FALSE (ssRNA)
# RNA: GGGAGUUCUACAGUCCGACGAUCCAGAGAGAAAUGGUAUAUCUCUCAUUUGUAAUGAAUCCACUCACGACACGUUGUAGCUACUUUUAUGAUAGAUGGUAUUAAACUGCUUCAAGCAAAACUGAGUAACUCAUGUAAAGCUUCCAACAGAGGAUUGAGCAUCA
# B21: chr3:176740097:176740098:-_ENSG00000177565_ENST00000430069|hu_mus|hu_hu_hu_mus_True|48_78 (ssRNA)
# RNA: GGGAGUUCUACAGUCCGACGAUCUGUUUUGUAUACCACAAAAGGAGGCACUUUCAGUAUCUGUAAAAGGUGUUUAGUCCUAAAACAUACUUACCUAGAGGAUAACUCAGGAAAACAAUCUGUUACACUCUAAGACCUACUCCACAACAGAGGAUUGAGCAUCA
# B22: chr8:81863377:81863378:-_ENSMUSG00000031681_ENSMUST00000066091|mus_mus|FALSE|FALSE (ssRNA)
# RNA: GGGAGUUCUACAGUCCGACGAUCAGCAUUUUAGUUGAUUUUUACAACAGAAUGUCACAAUGUAAACUGAAAGGGUUCUUGCUAUCAACCAAGGCUUGUCAGUUUCUCAAUCCAAUAGUUGGUCACAGAGGUCAAGUAUUAUCGCAACAGAGGAUUGAGCAUCA
# Biological target: T1, UNK ZnF1-3
# Assay: nsRBNS (natural sequence RNA bind-n-seq); RBNS binding buffer (assumed for nsRBNS): 25 mM Tris pH 7.5, 150 mM KCl, 3 mM MgCl2, 0.01% Triton X-100, 500 ug/ml BSA, 20 U/ml SUPERase-In, 4 C; UNK is unkempt and MSI1 is Musashi-1; names of the RNAs are library labels; protein concentration not given here; high values mean tight binding
row,Binder,binding signal
1,B1,1.17 enrichment R
2,B2,1.19 enrichment R
3,B3,0.881 enrichment R
4,B4,1.65 enrichment R
5,B5,0.576 enrichment R
6,B6,0.626 enrichment R
7,B7,1.17 enrichment R
8,B8,2.31 enrichment R
9,B9,1.17 enrichment R
10,B10,0.526 enrichment R
11,B11,0.805 enrichment R
12,B12,0.917 enrichment R
13,B13,1.39 enrichment R
14,B14,0.291 enrichment R
15,B15,1.18 enrichment R
16,B16,0.924 enrichment R
17,B17,0.672 enrichment R
18,B18,0.266 enrichment R
19,B19,1.38 enrichment R
20,B20,0.805 enrichment R
21,B21,0.861 enrichment R
22,B22,1.58 enrichment R
